# Measurements published in the supplement of paper PMC12632987.
# Over roughly 4,500 sequences, “median log2 fold change of GCK-ALFA target abundance (FLAG IP / Myc IP barcode read proportion)” has its median near 0.078; the lowest 2% begin near -0.6. The list shows a part of the results.
# B1: GBRAP_160_4562 (protein)
# chain: MEKVKALVDDLRADVEATLEATRDDSVEELAVALSGVIGSHAMEAAEDPRFSDEMVDILLAARDEITAYLAANRDASFEEIRAAILAIVDAAGAAMLAAA
# B2: GBRAP_160_4394 (protein)
# chain: EEEFEKLEKEINDIFEEAKKLIEGESPEERKVIIRVAFGEILMEVFSNEAVSDEQEEEFGKLLDEYEKKALEAVEKGLEAVLKVLDEARKEVLELIEKYK
# B3: GBRAP_128_3471 (protein)
# chain: AVEEARKRTEEIMEKMKEANDEEFKKLAEELAEWLLTLPVEEVEAAVEVIKEHLPELSAEKLEILADVLDKAMPKATPEKAALFADVRSEALLLAEEKEE
# B4: GBRAP_160_4318 (protein)
# chain: SEELEELKKEIREIAEEAERLIEGQSPEERLTIVRVALGEIVLLAVENPEISDELEDKIAEIADAAEAELRANPDLSEEEVKALLRKAVEEILKLIKEEE
# B5: GBRAP_160_4551 (protein)
# chain: SPFVDALVAHAREEVEEALALGAEVNPADALAVLRVAAGDVIMWAMEDPRATDEMEDAVAEVMDALIADFEANADAPMAEWRRLAAEHLAELRARLEALA
# B6: GBRAP_52_6353 (protein)
# chain: MRERMRRLVEEAVALALAGDEEGLRALAREIVETLSDEELRLLFEELARRARESDAETAEALLEVAEVLEDEMLKAGRDEFEASALLSDVGAAVYENLQR
# B7: GBRAP_125_3110 (protein)
# chain: SMEEILEALERLAKALGFSEEEAREAAELARRFSVKQTLYAIFLAEGEEELADLVEKLTEEQAIEALKELDEWLKKHPDASKEEVIKKAKEILEKQLAKQ
# B8: GBRAP_128_3472 (protein)
# chain: GVEEVRKWTKEVMEKMKTADDEEFRELATELAERLLTLPLEEVEAAVEVIKEHLPELTAEKLEILAEVLREARPQATPEKAALFADVESEALLLAEELEE
# B9: GBRAP_35_5511 (protein)
# chain: SSDETEVEMLVATIEDLVLAVPDLDVETAAAIAEQLLELARELAKELKNNPEALKRLAEAVERLLRAVREHYGDDPLAKETAERLEEALEEIRELLEKAK
# B10: GBRAP_78_6664 (protein)
# chain: KIEELLDKALEEIDKAARLTELLPEEDRNEVLGLLVDAASDIVEAEENGGDLELLEEAIKELKEAAKLLKKLKTPEAEKVLEEVEKALKYVEKAVKLKKK
# B11: GBRAP_52_6126 (protein)
# chain: MRERARALVEEMVALIRAGREEEARALAREAVATLDDEELELVAEELAELIRAASPEEQEYLERAAEILAEALEEAGRDEALADYVLARAAAALYEAELA
# B12: GBRAP_160_4216 (protein)
# chain: MELVDKLVKIVRDEFTEALELIEGESKEEQKVILDVAVGNVILEAMELPGVTDEMEETVEEMSEELAKKLLEMADKSKEEKLKLIEEMTAKLEEELKKLA
# B13: GBRAP_11_2910 (protein)
# chain: KEELLKKLAELAEELVEKLEELLEEGVEDEELLEEALELAEEALELAKENLDEADVELAEELVEELKEAMEDPETAEEHVEHALAIARVFLGQVLLAIEE
# B14: GBRAP_52_5908 (protein)
# chain: MREELRRIAEEMVAAVKAGNLEEARRIAREAVETLNDEELRLLIEEFAELVLEAPLEDLPYYFKAAEILAEEIERAGRDEVLADDLLNAVAAAAYQKEQA
# B15: GBRAP_74_6567 (protein)
# chain: SEELIKEIKEIAKNKSLLEFSNFILENIDKLDEEALLVAAEEFAKKIKEEKDTITEEELEKAAEAAAALADKAFQEDSSRETLKAMNELIAAVVEAEKSL
# B16: GBRAP_26_5441 (protein)
# chain: MDEIMDEAREKIVSLAETPEQKAGLATEMDNFEVEADEALEKMLKEGMSLEEFEAVLEEEKKEILETAKELGLSEETLKKIEEILNETKEKLLKLAKELR
# B17: GBRAP_139_3705 (protein)
# chain: SHLEEIVERARELTRRMREDREASLREIVALLASLDEEEAEAALEAIGEVLAEFPLDEAEELADELLELIEREIDDEDKRDIAEAVLNGALARHAYAEEL
# B18: GBRAP_52_5988 (protein)
# chain: MREEARRIAEELVELMLAGKREEAEKLIKEIVATKTPEQIKLIFEELARMAKEANPEEIDAIVEIAIILADAALEAGFDEAEVDDQLARVAAAAVEALKK
# B19: GBRAP_153_3943 (protein)
# chain: MEEEEKLLKEALELIEKIKKEGGKEELIRKLAKLIKELSEEQKLIVAKELNKLSEELVYKIFKVLATEEGFSVEELLEMTTELNLEHEAAALKAIVDAQK
# Target: GABARAP, O95166
# Sequence (O95166 whole entry, the tested form may be a part): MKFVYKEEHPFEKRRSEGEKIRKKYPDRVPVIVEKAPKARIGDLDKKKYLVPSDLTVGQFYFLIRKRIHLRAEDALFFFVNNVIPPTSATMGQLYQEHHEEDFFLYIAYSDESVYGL
# Assay: median log2 fold change of GCK-ALFA target abundance (FLAG IP / Myc IP barcode read proportion) (log2 ratio); each designed protein is fused to an ALFA-tag nanobody in HEK293 cells to bring the named protein to FLAG-tagged glucokinase (GCK); Myc marks an untargeted standard; higher = target protein stabilised (more abundant)
# Details: target protein: 3xFLAG-MCP-GCK-ALFA reporter; HEK293 landing pad (RPLP)
# In short: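 An ALFA-nanobody-fused binder library was recombined into HEK293 landing-pad cells and induced with 2 μg mL^−1 doxycycline. Cells were transfected with a plasmid expressing a FLAG-tagged target and a Myc-tagged standard. After 48 h, lysates underwent anti-FLAG and anti-Myc immunoprecipitation, and circular RNA barcodes were reverse transcribed, amplified and sequenced. Target abundance is the per-binder median log2 ratio of FLAG to Myc barcode read proportions. Barcodes needed ≥10^−7 proportion in both replicates, binders ≥3 barcodes per replicate, and a 10^−6 pseudocount was added; the two replicates were pooled.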
row,Binder,median log2 fold change
1,B1,0.132
2,B2,-0.447
3,B3,0.298
4,B4,-0.019
5,B5,-0.491
6,B6,-0.183
7,B7,-0.0531
8,B8,0.00124
9,B9,-0.0467
10,B10,-0.271
11,B11,-0.267
12,B12,-0.0469
13,B13,-0.0133
14,B14,-0.00567
15,B15,-0.102
16,B16,0.0427
17,B17,-0.0201
18,B18,-0.289
19,B19,0.21
